± gives the standard deviation of the averaged measurements. The list shows a part of the results.
Each sequence was assayed on PfAP2-I AP2 domain 3 (GST-tagged) (assay: gcPBM binding intensity (ln(normalized median fluorescence intensity)); higher = stronger DNA binding).
Outline: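 GST-fused DNA-binding domains of P. falciparum, expressed in E. coli, were applied at about 25 μg on average for 1 h to an Agilent 4 × 180k array of primer-extended double-stranded 36-bp intergenic genomic probes and negative controls. Binding intensity is the highest Masliner-normalised natural-log median intensity across replicate spots of either probe orientation, measured with Alexa488 anti-GST antibody and a 488 nm scan.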

Sequence | gcPBM binding intensity (ln)
TATATATACATACATACACACATATATATATATATT [CACACA_site4110] | 7.96 ± 0.35
ACATATAATATATAATGTACAAAATTGTTAACAATA [XGTACX_site3798] | 7.79 ± 0.35
AAAAAAAAAAAAAAAGTGCACAGTCGTTTTAAAAAA [GTGCAC_site9848] | 10.34 ± 0.092
TCTATATCTTTCAACACACAAATTTTTTTTTCCATC [CACACA_site4238] | 7.74 ± 0.64
AAGATAATATTTTCTTGTACGCATGCACATACAAAT [XGTACX_site7181] | 8.14 ± 0.52
CTTTTCTCCCTCCATAGTACAATTATAAAAATATAT [XGTACX_site3090] | 8.15 ± 0.2
ATGCAAAGTTTATAAAGTACATAAGTCAAAATAAAA [XGTACX_site1441] | 7.97 ± 0.68
ATTAACTATCATAACACACACAGTAGACATATTTTT [CACACA_site1822] | 7.83 ± 0.56
AAATCATTTAAGAACACACAAATATTTCCATTAAAT [CACACA_site6808] | 7.74 ± 0.57
CTCAATGTTTGCGATACATGCAAAAATTTTTAGAAT [TGCATGCA_site165] | 7.71 ± 0.5
TACATTTCATTGTAATCATAAAAAATAAAGAAAAAA [XGTACX_negctrl_site542] | 7.58 ± 0.61
TAGAAGCATGGACACACACACATACATACCCATACA [CACACA_site4916] | 8.05 ± 0.57
TTATTTTTCCGGAATAGTACATAGACGCAGATATAA [XGTACX_site6356] | 8.16 ± 0.33
CTTAGGTTAAAAGTGTGTACATAAAAACATATATAA [XGTACX_site2213] | 8.38 ± 0.26
TACTATTATAAATATGTGCACTTCAATAATATACTA | 10.4 ± 0.11
TAAATAAATTATTTTCGTACTTATTTATTTTAATTA [XGTACX_site283] | 7.57 ± 0.3
ATAAGAAAAAGACACACACACAAAAAAAAAAAAAAA [CACACA_site2828] | 8.04 ± 0.47
AAAAAAAAAAAACACACACACAAATACAAATGGTAA [CACACA_site1720] | 7.92 ± 0.4
TTCAATAGGTATAATTGTACTTAATAATATATTGTT [XGTACX_site8363] | 7.53 ± 0.42

Sequence | gcPBM binding intensity (ln)
AAGTTATTGATATATACACACAAATATAAATAATAT [CACACA_site6695] | 7.63 ± 0.55
AATACATATCAAAGCTGTACAAAGTAAATTTTACTT [XGTACX_site3525] | 7.72 ± 0.69
TAATGGTTATCACTAACATGCAGTAATATTATATAG [TGCATGCA_site176] | 7.93 ± 0.75
ATATATATATGTATATGTACATATATATGGTAACTC [XGTACX_site681] | 8.93 ± 0.55
AAAAGAAAAAAAAAAAAAAAAAAAATTAAAATATAA [CACACA_negctrl_site17] | 7.07 ± 0.49
TTTTTTCTTTTTTTTTGTACATATAATATTTATGTT [XGTACX_site302] | 7.8 ± 0.5
TAAAATATTATTTATTTACACACCAATCTTCTTTTC [CACACA_site9320] | 7.65 ± 0.51
ATATAATATTTATATGCACACTTTTCTATATATAAG [CACACA_site6100] | 9.77 ± 0.15
TCGTATTTAAAATGTAGTACATAATTTGAAAAATAA [XGTACX_site5832] | 7.83 ± 0.028
TACAGATACAGATACACACACACACCGAAATAAATA [CACACA_site4865] | 7.84 ± 0.37
TAAATTCCTACATACGCATGTACATTAAAATTTTAA [TGCATGCA_site215] | 7.91 ± 0.59
AAAATAAAAAGAAAAAGAAAAAAGGGGGGGTAGGGG [CACACA_negctrl_site1048] | 9.135 ± 0.049
CTTTAAGTTATATGAAGTACAATTTAAAAAAATGAA [XGTACX_site358] | 7.88 ± 0.28
ATACATTCAATGAAATGTACGTTTATTTACAGAAGA [XGTACX_site2999] | 7.68 ± 0.45
AAATAAAAAACAGTGGCACACATTATGTATCCACCT [CACACA_site3756] | 8.03 ± 0.69
AAAAAAAAAATATACACACACATATAAATATAAATA [CACACA_site7574] | 7.54 ± 0.38
TTAAAGTAGAGAAAATGTACATTTTATTAACACAAT [XGTACX_site6369] | 7.94 ± 0.65
TTATGCCTTTAATATACACACTAATATTTTTTTGGC [CACACA_site5171] | 7.76 ± 0.46
TATATGAAGTACACAATACACACTAATTATATATAA [CACACA_site2608] | 8.155 ± 0.035

Sequence | gcPBM binding intensity (ln)
AACTATAAAAATTTTACACACTGTTTTTAAATAATG [CACACA_site5928] | 7.93 ± 0.62
AATTTTTTTTTTAGACGTACAAGAAAAAACAAAAAA [XGTACX_site4990] | 8.15 ± 0.55
GTAAAATGATATAAATGTACATAATATATATATGTC [XGTACX_site4049] | 7.74 ± 0.6
TGTGTATTTATAAATACACACCAAATGTTAATATAT [CACACA_site6904] | 8.03 ± 0.47
TGTCATATTATAAATTGTACAAATAGTATAATTATT [XGTACX_site581] | 7.78 ± 0.54
ATAAAAATATTATAAGCACACATATATATATATATA [CACACA_site8781] | 9.39 ± 0.57
AGTATACATATATATACACACATATATATATATATA [CACACA_site300] | 9.38 ± 0.59
ATTTTATCTTTAAACTGTACGTATTAATATGTAGAA [XGTACX_site3077] | 8.02 ± 0.26
AAATAATTTGTTGACACACACACACCCATACAGATA [CACACA_site5291] | 8.12 ± 0.33
TTTTGACCATATCTGTTGCACTTTTGTGCTATTCGA | 9.49 ± 0.49
CATTATGTCGTAAATACACACATACATATACATACA [CACACA_site8383] | 7.93 ± 0.52
AAGGATCACAGACAAACACACATATATATATATATA [CACACA_site4469] | 9.33 ± 0.42
ATTAATTCGTTTTGTACACACATAATGAGTAATTTA [CACACA_site7118] | 7.82 ± 0.38
TAAATTTTTTCCTCCTGTACTTATTATATTTTTTTG [XGTACX_site1572] | 7.86 ± 0.61
TTTTTTTTTTTTTTTTGTACTCATATCTACTATCAT [XGTACX_site274] | 8.12 ± 0.77
ACAAGGTTTACGGGTAGTACAAATTTTTGAACATCT [XGTACX_site4739] | 7.59 ± 0.54
ATAAAAATTGATTATACACACGCGCCCAGACAACAA [CACACA_site5870] | 8.12 ± 0.49
ATATAGATGCATAATACACACATCAGATAATTAACC [CACACA_site6871] | 8.24 ± 0.45
ATTAAAAGTTTATACAAATAAAAAACAAAACAAAAA [CACACA_negctrl_site1030] | 7.7 ± 0.55
